# From PubChem BioAssay AID1347120 (National Center for Advancing Translational Sciences (NCATS), 2019)
# Screen size: about 390,000 compounds; about 930 (0.24%) were called active. The inconclusive results got no clear call from the source; some entries with a clear call stand among them for comparison. Calls come from the whole dose curve; as a rule, active = well fitted activation curve with a large enough effect; inconclusive = small, poorly fitted or top-dose-only effect; inactive = no such curve, though single readings can be large or run the other way. Where the call is inconclusive, the potency comes from a doubtful curve fit.
# Assay: qHTS for Suppressors of FUS Proteinopathy: Primary screen using FUS-linked yeast assay; note: nearly all actives have a fitted effect of over 55% in size;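 for growth rescue (activation): plate controls were DMSO vehicle for no effect and reference control for full effect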
# Conditions: S. cerevisiae FUS-expressing, OD600, 24 h; Potency: growth rescue; growth rescue (activation): at 76.6 µM (top of the series)
# Summary of the method: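 S. cerevisiae expressing FUS from galactose induction served as the toxicity model. Growth after 24hr at 30C, read as absorbance at 600 nm, indicates suppression of toxicity; compounds dosed at several concentrations.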
# Potency is the fitted concentration of half-maximal effect; tags give direction and shape of the fitted curve.
Compound,growth rescue (activation),Potency
O=C(Cc1ccccc1)c1ccc(O)cc1,inactive: -10.7%,
CC(=O)c1ccc(NC(=O)CSc2nnc(Cn3cnc4ccccc43)o2)cc1,inactive: 9.45%,
C=CC[C@@H](Cc1ccc(F)cc1)C(=O)OC[C@@H]1CCCN1C(=O)[C@H](CC=C)CC(=O)NCCO,,"inconclusive: 28.2 µM [activator, single point]"
CCOC(=O)N1CCC(NC(=O)c2ccc3c(c2)N(Cc2ccc(Cl)cc2)C(=O)c2ccccc2S3(=O)=O)CC1,,"inconclusive: 15.8 µM [activator, partial curve, poor fit]"
CCOc1cc(C2/C(=C(/O)c3ccc(OC)cc3)C(=O)C(=O)N2CC2CCCO2)ccc1O (stereo not drawn),,"inconclusive: 3.98 µM [activator, partial curve, poor fit]"
CCC1CCc2c(sc(NC(=O)C3c4ccccc4Oc4ccccc43)c2C(=O)OC)C1 (stereo not drawn),inactive: 14.9%,
CCOC(=O)c1ccc(N2C(=O)c3n[nH]c(-c4cccs4)c3C2c2ccc(OC)cc2OC)cc1 (stereo not drawn),inactive: 26%,
C=CC[C@@H](Cc1ccc(F)cc1)C(=O)OC[C@H]1CCCN1C(=O)[C@@H](CC=C)CC(=O)N(CCO)Cc1ccccc1,,"inconclusive: 17.8 µM [activator, single point]"
CC(C)OP(=O)(c1ccc(N(C)C)cc1)C(O)c1ccc(Br)cc1 (stereo not drawn),inactive: 18.5%,
COc1cc(CCC(=O)OCC(=O)Nc2ccc3c(c2)OCO3)cc(OC)c1OC,,"inconclusive: 15.8 µM [activator, partial curve, poor fit]"
C[C@H](CO)N1C[C@H](C)[C@@H](CN(C)Cc2ccc(Cl)c(Cl)c2)Oc2c(NC(=O)Cc3ccccc3)cccc2C1=O,,"inconclusive: 39.8 µM [activator, single point]"
COc1ccc(CN2C(=O)Cc3c2nc(N)c2c(N)nc(N4CCOCC4)c(C#N)c32)cc1,,"inconclusive: 44.7 µM [activator, single point]"
CC(=O)c1ccc(-c2ccc(C(=O)N3CCN(c4ccc(F)cc4)CC3)o2)cc1,inactive: 21.8%,
Cc1ccc(NC(=O)COC(=O)c2ccco2)cc1S(=O)(=O)N1CCCCC1,inactive: -21%,
N#CCC[C@H]1CC[C@]2(CCCN(C(=O)c3ccno3)C2)O1,inactive: -15.8%,
O=C(Nc1nc(-c2ccco2)c(-c2ccco2)s1)C1CC(=O)N(c2ccc3c(c2)OCCO3)C1 (stereo not drawn),,"inconclusive: 11.2 µM [activator, partial curve, poor fit]"
Cc1cc(C)cc(NC(=O)N2CCC(N3CCN(Cc4ccccc4)C(=O)C3=O)CC2)c1,,"inconclusive: 15.8 µM [activator, partial curve]"
Cc1ccc(Nc2nc(N/N=C\c3ccc4c(c3)OCO4)nc(N3CCOCC3)n2)cc1,,"inconclusive: 28.2 µM [activator, single point]"
COc1ccc(Nc2c3c(nc4ccc(NC(=O)c5cc(Cl)ccc5OC)cc24)CCCC3)cc1OC,,"inconclusive: 50.1 µM [activator, single point]"
Clc1cccc(Cc2c(-c3cccc(Br)c3)nc3ccc(Cl)cn23)c1,inactive: 19.3%,
CC(=O)Nc1cc(-c2cccc(N)c2)cn2c(-c3ccc(C(C)=O)cc3)cnc12,,"inconclusive: 44.7 µM [activator, single point]"

Compound,growth rescue (activation),Potency
Cc1ccc(CN(Cc2ccccc2)C(=S)Nc2ccccc2C)o1,,"inconclusive: 0.891 µM [activator, full curve, poor fit]"
Cc1ccc(S(=O)(=O)N/N=C\c2ccc(Cl)c([N+](=O)[O-])c2)cc1,inactive: -4.03%,
Cc1cccc([C@@H]2[C@@H]3C(=O)N(Cc4ccccc4)C(=O)[C@@H]3[C@]3(C)C(=O)N(c4cccc(Cl)c4)C(=O)N23)c1,,"inconclusive: 25.1 µM [activator, single point]"
CCN1C(=O)[C@@H]2Cc3c([nH]c4ccccc34)C(c3ccc(OC)cc3)N2C1=S (stereo partly drawn),,"inconclusive: 12.6 µM [activator, single point]"
CCOc1ccc(-c2cc(C(=O)N/N=C(\C)c3cccnc3)c3ccccc3n2)cc1,,"inconclusive: 25.1 µM [activator, partial curve, poor fit]"
Cc1cc(C)c2sc(N(CCCN(C)C)C(=O)c3ccc(S(=O)(=O)N4CCCc5ccccc54)cc3)nc2c1,,"inconclusive: 17.8 µM [activator, single point]"
CC(C)(C)c1ccc(C(=O)NNC(=S)NC(=O)c2cccnc2)cc1,,"inconclusive: 17.8 µM [activator, partial curve, poor fit]"
COCCn1c(SCC(=O)Nc2nc(C)c(Cl)cc2Cl)nc2ccccc21,,"inconclusive: 28.2 µM [activator, partial curve, poor fit]"
COc1ccc(C2C=C(c3ccccc3)Nc3nc(NC(=O)/C=C/c4ccccc4OC)nn32)cc1 (stereo not drawn),,"inconclusive: 39.8 µM [activator, partial curve, poor fit]"
CC(C)Oc1ccc(CN2CCC2(C)C(=O)Nc2ccc3c(c2)OCO3)cc1 (stereo not drawn),inactive: -16.9%,
O=c1oc2ccc(Cl)cc2cc1-c1cn2c(n1)sc1ccccc12,inactive: 15.3%,
COc1cccc(NC(=O)CSC2=Nc3ccccc3C3=NC(CC(=O)NCc4ccccc4OC)C(=O)N23)c1 (stereo not drawn),,active: 35.5 µM
CCc1cccc2c(C(=O)CN3C(=O)NC4(CCc5ccccc54)C3=O)c[nH]c12 (stereo not drawn),,"inconclusive: 44.7 µM [activator, single point]"
CCOC(=O)c1ccc(NC(=O)c2nc[nH]c2C(=O)N[C@@H](CCCCNC(=O)OC(C)(C)C)C(=O)OC(C)(C)C)cc1,,"inconclusive: 31.6 µM [activator, partial curve, poor fit]"
Cc1cc(NC(=O)C(C)SCC(=O)OCC(=O)N(Cc2ccccc2)C(C)(C)C)no1 (stereo not drawn),inactive: 24.2%,
COc1ccc(NC(=O)Cn2ccn(-c3ccc(C)c(C)c3)c(=O)c2=O)cc1Cl,inactive: -7.21%,
Cc1cc(NC(=O)CSc2nc(C(C)C)nc3c2c(=O)n(C)c(=O)n3C)no1,inactive: -31%,
CCc1ccc(Nc2cnn(C34CC5CC(CC(CC(=O)O)(C5)C3)C4)c(=O)c2Cl)cc1,,"inconclusive: 10 µM [activator, partial curve, poor fit]"
O=C(CSc1nc(=O)n(Cc2ccccn2)c2c1CCC2)Nc1cccc(Cl)c1,,"inconclusive: 25.1 µM [activator, single point]"
CN=C1S/C(=C/c2cc(C)n(-c3ccc(Cl)cc3F)c2C)C(=O)N1C,,"inconclusive: 11.2 µM [activator, partial curve, poor fit]"
Cc1ccc(-c2csc3ncnc(N4CCN(C(=O)c5ccccc5)CC4)c23)cc1,,"inconclusive: 44.7 µM [activator, single point]"

Compound,growth rescue (activation),Potency
Cc1cnc(C(=O)OCc2c(C)cc(C(C)(C)C)cc2C)cn1,,"inconclusive: 31.6 µM [activator, partial curve, poor fit]"
COC(=O)[C@@]12CCCCC=C1N(CCc1ccc(Cl)cc1)C(=O)[C@H]2CC(=O)NCc1cccc2ccccc12,inactive: 43.6%,
CC1CCCCC1NC(=O)c1cc2c(s1)CS(=O)(=O)C2 (stereo not drawn),,"inconclusive: 20 µM [activator, partial curve, poor fit]"
O=C(CCCC(=O)OCC(Cl)=C(Cl)Cl)Nc1ccc(F)cc1,inactive: 10.8%,
O=C(NCCc1ccccc1)c1ccc2c(c1)CCN2S(=O)(=O)c1ccc(Cl)cc1,inactive: -22%,
O=S(=O)(N=C1C=CC(=NS(=O)(=O)c2ccccc2)c2ccccc21)c1ccccc1,,"inconclusive: 14.1 µM [activator, single point]"
S=C(NCc1ccccc1)NNc1nc2ccccc2[nH]1,,"inconclusive: 39.8 µM [activator, single point]"
Cn1c(=O)c2c(nc(Cl)n2CC(=O)NC2(C#N)CCCCC2)n(C)c1=O,inactive: 7.86%,
COC(=O)c1c2c(nc3ccccc13)CCC2,,"inconclusive: 50.1 µM [activator, single point]"
COc1cc2ncc(S(=O)(=O)c3ccccc3)c(N3CCC4(CC3)OCCO4)c2cc1OC,inactive: 24.1%,
Cc1ccccc1OCCC(=O)OCC(=O)Nc1ccc(C)c(S(=O)(=O)N2CCCCC2)c1,,"inconclusive: 22.4 µM [activator, partial curve]"
O=C(c1ccccc1C(=O)N1CCN(c2ccccc2)CC1)N1CCN(c2ccccc2)CC1,,"inconclusive: 50.1 µM [activator, single point]"
CCOc1ccc(C(=O)Nc2ccc(C(=O)OCc3cc(=O)n4c(C)csc4n3)cc2)cc1,,"inconclusive: 44.7 µM [activator, single point]"
CCOCCCNC(=O)C(c1ccc(Cl)cc1)N(Cc1ccc2c(c1)OCO2)C(=O)c1ccc(NC(C)=O)cc1 (stereo not drawn),,"inconclusive: 35.5 µM [activator, single point]"
CC(=O)c1cccc(NC(=O)c2cc3sc(Cl)cc3n2C)c1,inactive: -7.91%,
CC(=O)c1c(C)[nH]c(C(=O)COC(=O)CN(C)S(=O)(=O)c2ccc(Cl)cc2)c1C,,"inconclusive: 8.91 µM [activator, partial curve]"
COC(=O)[C@]12C[C@H](CC(=O)NCCC(C)C)C(=O)N(Cc3ccc(Cl)cc3Cl)C1=C[C@H](COCc1ccccc1)O[C@@H]2C,,"inconclusive: 28.2 µM [activator, partial curve]"
OC(c1ccccc1)c1nc(/C=C/c2ccccc2)cs1 (stereo not drawn),inactive: -5.76%,
CCc1ccc2oc(-c3cccc(NC(=O)c4cccnc4)c3)nc2c1,,"inconclusive: 28.2 µM [activator, single point]"
Cc1ccccc1OCc1n[nH]c(=S)n1-c1cccc(Cl)c1,inactive: 0.759%,
COc1ccc(CCn2c(=N)c(C(=O)NCc3ccco3)cc3c(=O)n4ccccc4nc32)cc1,,"inconclusive: 25.1 µM [activator, partial curve, poor fit]"
